# Test results as given in the supplement of paper PMC8728848.
# This is one part of the list.
# B1: Pbx2 (Cryptococcus neoformans) (protein)
# chain: AVSPLPSSTELVFYSQKRRRRRICSTATGSLSTPDPTRMTSDPYKRVGMRFSSVPRLLITFLSLLLLVSAAPPCVRFADYDSINQMFIDGGPGTKVLLCPNRLYRLSGPIIFTAADQEIATYGYPTGSERAVLRVEGRNTATAIQGDCRRCARVSVKNLVVDGNRKKLGRMRDFQLATGLVVLGGNEGQSIQNSWIKNPRGFTAIHIREGDKLQCSGARVEKNEIGPVGEEYDPEKDGDDPEMSPLGRPLADGVSIACRDSFIRDNTFRDNTDAAIVVYCSPGTLIHANHIFAQSLSAMAGILMVDSTPFNGDYTGTVVRSNIIDAVSRTIRVGIGIGPTVWSDDTETILTGGSVIGNGLKGRYMGYGIAAAGLKQWTIKDNWDEAKHEGRKSARCFDEPVNPDPIGLLYNRPTMEDCTVQSGFADHDFQYLVCIDGLYDKTNPPKHDPAPLAHDPSPTNAQEDNTVQQDGGDSKSKSIEQPREASDIEAEPSVEKMFSTGSEMMDDVLEHSHQRMHEVIDHLSRRIDILGAASAGKGSGDSKISEVLDPAMSSHLEKLQRKIEHLEFSLRSQIETAIQLRSAIQGWDQEMALVTDWEYDILLDVRHKLELSSYPHDQPLDPRLMRGQSYLNNEAVLVDDHSHPSLEGENLRAMSDRARLNANEEA
# Key:
# Assay in all cases: glycan array binding signal (z-score within array); higher = stronger binding
# Conditions in all cases: glycan notation: IUPAC condensed, linker removed
# [1] = molecular target: Fuc(a1-3)[Gal(b1-4)]Glc6S
# Summary of the method: (§1)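 From the Consortium for Functional Glycomics database, 3228 arrays were curated, keeping only those whose protein sequence was available. Binding is given as a within-array Z-score averaged across arrays sharing a protein sequence and across linkers. Negative Z-scores can be read as non-binding.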
# [2] = molecular target: Fuc(a1-3)[Gal(b1-4)]GlcNAc
# Summary of the method: as §1
# [3] = molecular target: Fuc(a1-3)[Gal(b1-4)]GlcNAc(b1-2)Man
# Summary of the method: as §1
# [4] = molecular target: Fuc(a1-3)[Gal(b1-4)]GlcNAc(b1-2)Man(a1-3)[Fuc(a1-3)[Gal(b1-4)]GlcNAc(b1-2)Man(a1-6)]Man(b1-4)GlcNAc(b1-4)GlcNAc
# Summary of the method: as §1
# [5] = molecular target: Fuc(a1-3)[Gal(b1-4)]GlcNAc(b1-2)Man(a1-3)[Fuc(a1-3)[Gal(b1-4)]GlcNAc(b1-2)Man(a1-6)]Man(b1-4)GlcNAc(b1-4)[Fuc(a1-6)]GlcNAc
# Summary of the method: as §1
# [6] = molecular target: Fuc(a1-3)[Gal(b1-4)]GlcNAc(b1-3)Gal(b1-3)[Fuc(a1-4)]GlcNAc
# Summary of the method: as §1
# [7] = molecular target: Fuc(a1-3)[Gal(b1-4)]GlcNAc(b1-3)GalNAc
# Summary of the method: as §1
# [8] = molecular target: Fuc(a1-3)[Gal(b1-4)]GlcNAc(b1-4)Gal(b1-4)[Fuc(a1-3)]GlcNAc
# Summary of the method: as §1
# [9] = molecular target: Fuc(a1-3)[Gal(b1-4)]GlcNAc(b1-4)Gal(b1-4)[Fuc(a1-3)]GlcNAc(b1-4)Gal(b1-4)[Fuc(a1-3)]GlcNAc
# Summary of the method: as §1
# [10] = molecular target: Fuc(a1-3)[Gal(b1-4)]GlcNAc(b1-6)GalNAc
# Summary of the method: as §1
# [11] = molecular target: Fuc(a1-3)[Gal(b1-4)]GlcNAc(b1-6)[Gal(b1-3)GlcNAc(b1-3)]Gal(b1-4)Glc
# Summary of the method: as §1
# [12] = molecular target: Fuc(a1-3)[Gal(b1-4)]GlcNAc6S
# Summary of the method: as §1
# [13] = molecular target: Fuc(a1-3)[Gal3S(b1-4)]Glc
# Summary of the method: as §1
# [14] = molecular target: Fuc(a1-3)[Gal3S(b1-4)]GlcNAc
# Summary of the method: as §1
# [15] = molecular target: Fuc(a1-3)[Gal3S(b1-4)]GlcNAc6S
# Summary of the method: as §1
# [16] = molecular target: Fuc(a1-3)[GalNAc(b1-4)]GlcNAc
# Summary of the method: as §1
# [17] = molecular target: Fuc(a1-3)[GalNAc(b1-4)]GlcNAc6S
# Summary of the method: as §1
# Fuc(a1-4)GlcNAc = molecular target: Fuc(a1-4)GlcNAc
# Summary of the method: as §1
# Fuc(b1-3)GlcNAc = molecular target: Fuc(b1-3)GlcNAc
# Summary of the method: as §1
# Gal(a1-2)Gal = molecular target: Gal(a1-2)Gal
# Summary of the method: as §1
# Gal(a1-3)Gal = molecular target: Gal(a1-3)Gal
# Summary of the method: as §1
# Gal(a1-3)Gal(b1-3)GlcNAc = molecular target: Gal(a1-3)Gal(b1-3)GlcNAc
# Summary of the method: as §1
# [18] = molecular target: Gal(a1-3)Gal(b1-3)GlcNAc(b1-2)Man
# Summary of the method: as §1
# [19] = molecular target: Gal(a1-3)Gal(b1-3)GlcNAc(b1-2)Man(a1-3)[Gal(a1-3)Gal(b1-3)GlcNAc(b1-2)Man(a1-6)]Man(b1-4)GlcNAc(b1-4)GlcNAc
# Summary of the method: as §1
# [20] = molecular target: Gal(a1-3)Gal(b1-3)GlcNAc(b1-3)GalNAc
# Summary of the method: as §1
# [21] = molecular target: Gal(a1-3)Gal(b1-3)GlcNAc(b1-6)GalNAc
# Summary of the method: as §1
# [22] = molecular target: Gal(a1-3)Gal(b1-3)[Fuc(a1-4)]GlcNAc(b1-2)Man(a1-3)[Gal(a1-3)Gal(b1-3)[Fuc(a1-4)]GlcNAc(b1-2)Man(a1-6)]Man(b1-4)GlcNAc(b1-4)GlcNAc
# Summary of the method: as §1
# Gal(a1-3)Gal(b1-4)Glc = molecular target: Gal(a1-3)Gal(b1-4)Glc
# Summary of the method: as §1
# Gal(a1-3)Gal(b1-4)GlcNAc = molecular target: Gal(a1-3)Gal(b1-4)GlcNAc
# Summary of the method: as §1
# [23] = molecular target: Gal(a1-3)Gal(b1-4)GlcNAc(b1-2)Man
# Summary of the method: as §1
binder,measurement,setting,value
B1,glycan array binding signal (z-score),[1],-0.285
same,glycan array binding signal (z-score),[2],-0.094
same,glycan array binding signal (z-score),[3],-0.041
same,glycan array binding signal (z-score),[4],0.271
same,glycan array binding signal (z-score),[5],-0.34
same,glycan array binding signal (z-score),[6],-0.184
same,glycan array binding signal (z-score),[7],0.013
same,glycan array binding signal (z-score),[8],-0.139
same,glycan array binding signal (z-score),[9],-0.366
same,glycan array binding signal (z-score),[10],0.137
same,glycan array binding signal (z-score),[11],-0.361
same,glycan array binding signal (z-score),[12],-0.641
same,glycan array binding signal (z-score),[13],-0.224
same,glycan array binding signal (z-score),[14],0.057
same,glycan array binding signal (z-score),[15],0.679
same,glycan array binding signal (z-score),[16],-0.291
same,glycan array binding signal (z-score),[17],-0.186
same,glycan array binding signal (z-score),Fuc(a1-4)GlcNAc,-0.284
same,glycan array binding signal (z-score),Fuc(b1-3)GlcNAc,-0.524
same,glycan array binding signal (z-score),Gal(a1-2)Gal,-0.104
same,glycan array binding signal (z-score),Gal(a1-3)Gal,0.196
same,glycan array binding signal (z-score),Gal(a1-3)Gal(b1-3)GlcNAc,-0.038
same,glycan array binding signal (z-score),[18],-0.335
same,glycan array binding signal (z-score),[19],0.261
same,glycan array binding signal (z-score),[20],0.123
same,glycan array binding signal (z-score),[21],0.063
same,glycan array binding signal (z-score),[22],-0.392
same,glycan array binding signal (z-score),Gal(a1-3)Gal(b1-4)Glc,0.082
same,glycan array binding signal (z-score),Gal(a1-3)Gal(b1-4)GlcNAc,-0.346
same,glycan array binding signal (z-score),[23],-0.054
